In patent US7816326B2, “Sulfur compounds as inhibitors of hepatitis C virus NS3 serine protease” (Schering Corporation, priority 2004, dated 2010) one finds Ki data, which are given here for 23 molecules.

pKi: −log10 of the molar value. Read-outs that look alike come from different tables or passages of the source.

For the test, the target named is Recombinant heterodimeric HCV NS3/NS4A protease (strain 1a) (Hepatitis C virus genotype 1a, UniProt P27958). Description: Spectrophotometric assay for HCV protease inhibitory activity. The test is classed as biochemical.
[1] abbreviates: HCV serine protease inhibitory activity ranges, read-out: Ki* Range.

In general, pKi refers to the Ki on a negative log10 scale, so that one unit is a factor of ten.

Consider `CCCC[C@H](NC(=O)[C@@H]1[C@@H]2[C@H](CN1C(=O)[C@@H](NC(=O)NC1(CS(=O)(=O)N3CC(F)(F)C3)CCCCC1)C(C)(C)C)C2(C)C)C(=O)C(=O)NC1CC1` [compound 1406], for which the pKi under setting [1] was above 7.12.
On to `C[C@@H](C1(NC(=O)N[C@H](C(=O)N2C[C@H]3[C@@H]([C@H]2C(=O)N[C@@H](CC2CC2)C(=O)C(=O)NC2CC2)C3(C)C)C(C)(C)C)CCCCC1)S(=O)(=O)N(C)C` [compound 1404], for which, under setting [1], the pKi is above 7.12.
Take `CCCC[C@H](NC(=O)[C@@H]1[C@@H]2[C@H](CN1C(=O)[C@@H](NC(=O)NC1(CS(=O)(=O)N3CCCCC3)CCCCC1)C(C)(C)C)C2(C)C)C(=O)C(=O)NC1CC1` [compound 1219]: under setting [1], the pKi is above 7.12.
As to `C[C@H](C1(NC(=O)N[C@H](C(=O)N2C[C@H]3[C@@H]([C@H]2C(=O)N[C@@H](CC2CC2)C(=O)C(=O)NC2CC2)C3(C)C)C(C)(C)C)CCCCC1)S(=O)(=O)N(C)C` [compound 1400], the negative-log Ki (pKi) under setting [1] was above 7.12.
As to `CCN(CC)S(=O)(=O)CC1(NC(=O)N[C@H](C(=O)N2C[C@H]3[C@@H]([C@H]2C(=O)N[C@@H](CC2CC2)C(=O)C(=O)NC2CC2)C3(C)C)C2CCCCC2)CCCCC1` [compound 1336], under setting [1], the pKi was above 7.12.
Still for that read-out and setting: with `CN(C)S(=O)(=O)CC1(NC(=O)N[C@H](C(=O)N2C[C@H]3[C@@H]([C@H]2C(=O)N[C@@H](CCC2CC2)C(=O)C(=O)NC2CC2)C3(C)C)C2(C)CCCCC2)CCCCC1` [compound 1235] the figure was above 7.12.
`CCC[C@H](NC(=O)[C@@H]1[C@@H]2[C@H](CN1C(=O)[C@@H](NC(=O)NC1(CS(=O)(=O)N(C)OC)CCCCC1)C(C)(C)C)C2(C)C)C(=O)C(=O)NCC` [compound 1230]: under setting [1], the pKi was above 7.12.
Still for that read-out and setting: then `CCCC[C@H](NC(=O)[C@@H]1[C@@H]2[C@H](CN1C(=O)[C@@H](NC(=O)NC1(CS(=O)(=O)N(C)C(C)(C)C3CC3)CCCCC1)C(C)(C)C)C2(C)C)C(=O)C(=O)NC1CC1` [compound 1298], with above 7.12; and `CCC[C@H](NC(=O)[C@@H]1[C@@H]2[C@H](CN1C(=O)[C@@H](NC(=O)NC1(CS(=O)(=O)N(C)C(C)(C)C)CCCCC1)C(C)(C)C)C2(C)C)C(=O)C(=O)NC1CC1` [compound 1274], with above 7.12; and `CCC[C@H](NC(=O)[C@@H]1[C@@H]2[C@H](CN1C(=O)[C@@H](NC(=O)NC1([C@@H]3CCN(C)S3(=O)=O)CCCCC1)C(C)(C)C)C2(C)C)C(=O)C(=O)NC1CC1` [compound 1206], with above 7.12.
On the same count and under the same terms, then `CCCC[C@H](NC(=O)[C@@H]1[C@@H]2[C@H](CN1C(=O)[C@@H](NC(=O)NC1([C@@H](C)S(=O)(=O)N(C)C)CCCCC1)C1(C)CCCCC1)C2(C)C)C(=O)C(=O)NC1CC1` [compound 1407], with above 7.12; and `C[C@H](C1(NC(=O)N[C@H](C(=O)N2C[C@H]3[C@@H]([C@H]2C(=O)N[C@@H](CC2CC2)C(=O)C(=O)NC2CC2)C3(C)C)C(C)(C)C)CCCCC1)S(=O)(=O)N(C)C1CC1` [compound 1418], with above 7.12; and `CNS(=O)(=O)CC1(NC(=O)N[C@H](C(=O)N2C[C@H]3[C@@H]([C@H]2C(=O)N[C@@H](CCC2CC2)C(=O)C(=O)NC2CC2)C3(C)C)C(C)(C)C)CCCCC1` [compound 1246], with above 7.12.
As to `CCC[C@H](NC(=O)[C@@H]1[C@@H]2[C@H](CN1C(=O)[C@@H](NC(=O)NC1(CS(=O)(=O)N3CC(F)(F)C3)CCCCC1)C(C)(C)C)C2(C)C)C(=O)C(=O)NC1CC1` [compound 1405], the negative logarithm of the Ki (pKi) under setting [1] is above 7.12.
As to `C[C@H](C1(NC(=O)N[C@H](C(=O)N2C[C@H]3[C@@H]([C@H]2C(=O)N[C@@H](CC2CC2)C(=O)C(=O)NC2CC2)C3(C)C)C2(C)CCCCC2)CCCCC1)S(=O)(=O)N(C)C` [compound 1410], the negative logarithm of the Ki (pKi) runs as follows: (HCV NS3/NS4A protease, chromogenic ester substrate, 30° C., pH 6.5, read-out: Ki*) 8.92; under setting [1], above 7.12.
With `C[C@@H](C1(NC(=O)N[C@H](C(=O)N2C[C@H]3[C@@H]([C@H]2C(=O)N[C@@H](CC2CC2)C(=O)C(=O)NC2CC2)C3(C)C)C2(C)CCCCC2)CCCCC1)S(=O)(=O)N(C)C` [compound 1414], the pKi under setting [1] is above 7.12.
`CCC[C@H](NC(=O)[C@@H]1[C@@H]2[C@H](CN1C(=O)[C@@H](NC(=O)NC1([C@@H](C)S(=O)(=O)N(C)C3CC3)CCCCC1)C(C)(C)C)C2(C)C)C(=O)C(=O)NC1CC1` [compound 1417]: the pKi under setting [1] is above 7.12.
Same read-out and setting: then `CCCC[C@H](NC(=O)[C@@H]1[C@@H]2[C@H](CN1C(=O)[C@@H](NC(=O)NC1(CS(=O)(=O)N(C)[C@H](C)C3CC3)CCCCC1)C(C)(C)C)C2(C)C)C(=O)C(=O)NC1CC1` [compound 1294], with above 7.12; and `CON(C)S(=O)(=O)CC1(NC(=O)N[C@H](C(=O)N2C[C@H]3[C@@H]([C@H]2C(=O)N[C@@H](CC2CC2)C(=O)C(=O)NC2CC2)C3(C)C)C(C)(C)C)CCCCC1` [compound 1228], with above 7.12.
On to `CCC[C@H](NC(=O)[C@@H]1[C@@H]2[C@H](CN1C(=O)[C@@H](NC(=O)NC1(CS(=O)(=O)N(C)C(C)(C)C3CC3)CCCCC1)C(C)(C)C)C2(C)C)C(=O)C(=O)NC1CC1` [compound 1309], for which, under setting [1], the pKi was above 7.12.
The same measure, in the same setting: with `CCN(C(C)(C)C)S(=O)(=O)CC1(NC(=O)N[C@H](C(=O)N2C[C@H]3[C@@H]([C@H]2C(=O)N[C@@H](CCC2CC2)C(=O)C(=O)NC2CC2)C3(C)C)C2(C)CCCCC2)CCCCC1` [compound 1324] the figure was above 7.12; with `CN(C1CCC1)S(=O)(=O)CC1(NC(=O)N[C@H](C(=O)N2C[C@H]3[C@@H]([C@H]2C(=O)N[C@@H](CCC2CC2)C(=O)C(=O)NC2CC2)C3(C)C)C2(C)CCCCC2)CCCCC1` [compound 1391], above 7.12.
The same measure, in the same setting: then `CCN(C1CC1)S(=O)(=O)CC1(NC(=O)N[C@H](C(=O)N2C[C@H]3[C@@H]([C@H]2C(=O)N[C@@H](CCC2CC2)C(=O)C(=O)NC2CC2)C3(C)C)C2(C)CCCCC2)CCCCC1` [compound 1360], with above 7.12.
